From PubChem BioAssay AID1865 (National Center for Advancing Translational Sciences (NCATS), 2009)
Out of some 280,000 compounds screened, about 540 (0.19%) were called active. This list was built around the results that the source calls inconclusive (neither active nor inactive); the mix of calls is not that of the screen. The call rests on the fitted dose curve; in most records, active means well fitted activation curve with a large enough effect; inconclusive means small, poorly fitted or top-dose-only effect; inactive means flat fitted curve, though single readings scatter. Potencies of inconclusive entries are doubtful fits and often do not repeat.

test: Quantitative High-Throughput Screen for Regulators of Epigenetic Control; conditions: murine LDR cells, GFP reporter derepression, 30 h; GFP activation: at 53.9 µM (top of the series); further: nearly all actives have a fitted effect of over 60% in size; on GFP activation: % of control where 0% means no effect
Method in brief: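 In this reporter-derepression format, murine cells bearing a silenced integrated CMV-GFP locus incubate with test compound (30 h, 37 C), then are washed and imaged; fluorescent objects of 20–120 um count as induced cells.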
Potency means the concentration at half of the fitted maximal effect; tags describe the fitted curve by direction and shape.

Q: With `O=C(O)CSCC(=O)N1CCCN(c2nc3ccc(Cl)cc3s2)CC1` as the compound, how does the “GFP activation” value read?
A: inactive: 1.08%

Q: For `CC1CCN(S(=O)(=O)c2ccc(NC(=O)Cn3nnc(-c4ccccc4F)n3)cc2)CC1`, which Potency is on record?
A: inconclusive: 25.1 µM [activator, single point]

Q: For `Brc1ccc(OCc2nc(-c3ccccn3)n[nH]2)cc1`, which Potency is on record?
A: inconclusive: 35.5 µM [activator, single point]

Q: Which Potency does the source give for `O=C(Cn1ncc(Cl)c(Cl)c1=O)N1CCN(S(=O)(=O)c2ccc3ccccc3c2)CC1` here?
A: inconclusive: 3.98 µM [activator, single point]

Q: With `Cc1ccc(C)n1-c1ccc(N2CCOCC2)c([N+](=O)[O-])c1` as the compound, how does the Potency read?
A: inconclusive: 25.1 µM [activator, single point]

Q: With `Oc1ccc(-c2csc(Nc3ncccn3)n2)c(O)c1` as the compound, how does the “GFP activation” value read?
A: inactive: 6.85%

Q: With `C=CCN1C(=O)c2cccc3c(N4CCCCC4)ccc(c23)C1=O` as the compound, how does the Potency read?
A: inconclusive: 25.1 µM [activator, single point]

Q: For `COc1ccc(C(C(=O)NC2CCCCC2)N(C(=O)c2sc(C)nc2C)c2ccc(OC)cc2)cc1` (centres undefined), which Potency is on record?
A: inconclusive: 35.5 µM [activator, single point]

Q: For `Cc1ccc(OCC(=O)Nc2cccc(-c3nc4ccccc4o3)c2C)cc1C`, which Potency is on record?
A: inconclusive: 35.5 µM [activator, single point]

Q: With `Cc1ccc2cccc(NC(=S)NC(=O)c3ccnn3C)c2n1` as the compound, how does the Potency read?
A: inconclusive: 25.1 µM [activator, single point]

Q: With `Cc1cc(C)cc(NC(=O)CSc2oc(-c3ccccc3)nc2S(=O)(=O)c2ccccc2)c1` as the compound, how does the Potency read?
A: inconclusive: 35.5 µM [activator, single point]

Q: Which Potency does the source give for `N#Cc1c(C(F)(F)F)cc(-c2cccs2)nc1SCC(=O)Nc1ccccc1F` here?
A: inconclusive: 8.91 µM [activator, partial curve]

Q: With `Cc1ccc(OCC(=O)Nc2cccc(OCc3cc(=O)n4cccc(C)c4n3)c2)cc1C` as the compound, how does the Potency read?
A: inconclusive: 25.1 µM [activator, single point]

Q: With `CCN1CCCc2cc(CN(CCN3CCOCC3)C(=S)Nc3ccc(C)cc3)ccc21` as the compound, how does the “GFP activation” value read?
A: inactive: -0.129%

Q: For `CCOc1ccc(-c2cc(C(=O)NCc3ccccc3Cl)c3ccccc3n2)cc1`, which Potency is on record?
A: inconclusive: 22.4 µM [activator, single point]

Q: For `Cc1cccc(OCC(=O)Nc2ccc(-c3nc4ccccc4o3)cc2)c1C`, which Potency is on record?
A: inconclusive: 35.5 µM [activator, single point]

Q: Which “GFP activation” value does the source give for `Oc1ccc(C2=NNC(=NCc3ccc4c(c3)OCO4)SC2)c(O)c1` here?
A: inactive: 0.971%

Q: Which “GFP activation” value does the source give for `Cn1nc(-c2ccccc2)cc1NS(=O)(=O)c1ccccc1` here?
A: inactive: 0.0852%

Q: Which “GFP activation” value does the source give for `CCCN(CCC)C(=S)NC(=O)c1ccc(-c2ccccc2)cc1` here?
A: inactive: -0.917%

Q: With `CCOc1ccc(NC(=O)c2sc3nc4c(c(-c5ccc(OC)cc5)c3c2N)C(=O)CC(C)(C)C4)cc1` as the compound, how does the Potency read?
A: active: 11.2 µM

Q: For `COc1ccc(N=c2oc3cc(O)ccc3cc2C(=O)Nc2ccccn2)cc1OC`, which Potency is on record?
A: inconclusive: 31.6 µM [activator, single point]

Q: For `CC(C(=O)NCc1ccc(F)cc1)c1ccc([N+](=O)[O-])cc1` (centres undefined), which Potency is on record?
A: inconclusive: 5.01 µM [activator, full curve]

Q: Which Potency does the source give for `COc1ccc(C2c3ccc(O)cc3Oc3ncn4nc(-c5ccco5)nc4c32)cc1OC` (centres undefined) here?
A: active: 22.4 µM

Q: Which “GFP activation” value does the source give for `Cc1cccc(NC(=O)CS(=O)(=O)c2cccc3nsnc23)c1` here?
A: inactive: 1.06%

Q: Which Potency does the source give for `O=C(NCCc1ccccc1)c1nn(-c2ccc(F)cc2)nc1CO` here?
A: inconclusive: 7.08 µM [activator, single point]

Q: For `Cc1ccc(F)cc1NC(=O)Cn1c(C)cc(C)c(C#N)c1=O`, which Potency is on record?
A: inconclusive: 10 µM [activator, partial curve, poor fit]

Q: Which Potency does the source give for `CCOC(=O)Nc1sc(=S)n(C)c1C` here?
A: inconclusive: 31.6 µM [activator, single point]

Q: With `Cc1ccc2nc(NC(=O)c3ccc(N4C(=O)CCC4=O)cc3)sc2c1` as the compound, how does the Potency read?
A: inconclusive: 6.31 µM [activator, single point]

Q: With `COc1ccc(/C=C/C(=O)CC(=O)/C=C/c2cccc(O)c2OC)cc1O` as the compound, how does the Potency read?
A: active: 12.6 µM

Q: With `COC(=O)c1ccc(CN2C(=O)NC(CC(C)C)C2=O)cc1` (centres undefined) as the compound, how does the “GFP activation” value read?
A: inactive: -0.451%

Q: With `CN(c1ccccc1)S(=O)(=O)c1cccc(C(=O)NCCc2ccc(O)c(O)c2)c1` as the compound, how does the Potency read?
A: inconclusive: 35.5 µM [activator, single point]

Q: Which Potency does the source give for `COc1ccc(NC(=O)Cn2c(=O)n(Cc3ccco3)c(=O)c3sc4ccccc4c32)c(OC)c1` here?
A: inconclusive: 20 µM [activator, single point]

Q: With `CCc1c(C)sc(NC(=O)c2cccs2)c1C(N)=O` as the compound, how does the Potency read?
A: inconclusive: 6.31 µM [activator, single point]

Q: For `COc1ccc(CCNc2ncnc3onc(-c4ccc(Cl)cc4)c23)c(OC)c1`, which “GFP activation” value is on record?
A: inactive: -0.432%

Q: Which Potency does the source give for `COc1ccc2c(Sc3ccc(C)cc3)c(C(=O)NCC(C)c3ccccc3)[nH]c2c1` (centres undefined) here?
A: inconclusive: 0.0708 µM [activator, full curve, poor fit]

Q: With `O=[N+]([O-])c1ccc(CSc2ccc(-c3ccccn3)nn2)cc1` as the compound, how does the Potency read?
A: inconclusive: 35.5 µM [activator, single point]

Q: With `CCC(=O)N1CCN(c2ccc(NC(=O)c3ccc([N+](=O)[O-])o3)cc2)CC1` as the compound, how does the Potency read?
A: inconclusive: 3.55 µM [activator, partial curve]

Q: Which Potency does the source give for `O=C(Nc1ccc(-c2nc3ncccc3o2)cc1)c1ccc(Br)o1` here?
A: inconclusive: 35.5 µM [activator, single point]

Q: For `Cn1c(CS(=O)Cc2c(Cl)cccc2Cl)nnc1SCc1c(Cl)cccc1Cl` (centres undefined), which “GFP activation” value is on record?
A: inactive: 0.559%

Q: For `CCOc1cc(-c2ccc3c(c2)OCO3)cc(=O)c2c(C)oc(C)c12`, which “GFP activation” value is on record?
A: inactive: 0%

Q: With `Cc1ccccc1NCc1ccc(O)c2ncccc12` as the compound, how does the Potency read?
A: inconclusive: 35.5 µM [activator, single point]

Q: With `CCOc1cc(/C=C2\C(=O)ON=C2C)ccc1OCc1ccccc1` as the compound, how does the Potency read?
A: inconclusive: 31.6 µM [activator, single point]

Q: Which Potency does the source give for `O=c1cc(CSc2ccc(S(=O)(=O)N3CCCCC3)cn2)nc2sccn12` here?
A: inconclusive: 35.5 µM [activator, single point]

Q: With `O=C(CO/N=C/c1c(Cl)cccc1Cl)NNC(=O)c1cccc(Cl)c1` as the compound, how does the “GFP activation” value read?
A: inactive: 1.11%

Q: For `COc1cccc(-c2csc3nnc(SCC(=O)NCc4cccs4)n23)c1`, which Potency is on record?
A: inconclusive: 5.01 µM [activator, single point]

Q: For `O=C(NC(=S)Nc1ccc(NC(=O)c2ccco2)cc1)c1ccccc1`, which Potency is on record?
A: inconclusive: 35.5 µM [activator, single point]

Q: With `COc1ccccc1N1CCN(Cc2ccc(O)c3ncccc23)CC1` as the compound, how does the Potency read?
A: inconclusive: 2.24 µM [activator, full curve]

Q: With `CC(=O)c1cccc(N=c2scc(-c3ccc(S(=O)(=O)N4CCOCC4)cc3)n2CCO)c1` as the compound, how does the Potency read?
A: inconclusive: 35.5 µM [activator, single point]

Q: Which Potency does the source give for `CCOC(=O)Cc1csc(NC(=O)c2sc3nc4c(C)cc(C)cc4cc3c2N)n1` here?
A: inconclusive: 31.6 µM [activator, single point]

Q: Which “GFP activation” value does the source give for `COC(=O)c1cc(OC)c(OC)cc1NC(=S)N1CCN(Cc2ccccc2)CC1` here?
A: inactive: -2.22%

Q: Which “GFP activation” value does the source give for `Cn1c(=O)c2c(ncn2CC(=O)N2CCOCC2)n(C)c1=O` here?
A: inactive: 0%

Q: For `COc1ccc(-c2cc(C(=O)N/N=C\c3cc(OC)c(OC)c(OC)c3)[nH]n2)cc1`, which Potency is on record?
A: inconclusive: 35.5 µM [activator, single point]

Q: Which Potency does the source give for `COC(=O)c1c(NC(=O)/C=C/c2ccc(OC)cc2)sc2c1CCC2` here?
A: inconclusive: 35.5 µM [activator, single point]

Q: Which Potency does the source give for `O=C(N/N=C/c1ccc(O)c2ncccc12)c1cccc(Br)c1` here?
A: inconclusive: 35.5 µM [activator, single point]

Q: For `O=C(Nc1ccc(CN2CCCCC2)cc1)c1cccc(F)c1`, which “GFP activation” value is on record?
A: inactive: 1.06%

Q: With `Cc1nn2c(-c3ccco3)ccnc2c1-c1ccc(Cl)cc1` as the compound, how does the Potency read?
A: inconclusive: 35.5 µM [activator, single point]

Q: Which Potency does the source give for `CC[n+]1ccccc1/C=C/c1ccc(N(C)C)cc1` here?
A: active: 15.8 µM

Q: With `CC1CN(C(=O)c2cc3c(=O)n4ccccc4nc3s2)CC(C)O1` (centres undefined) as the compound, how does the “GFP activation” value read?
A: inactive: 0%

Q: With `O=C(O)/C=C/C(=O)Nc1ccc(Oc2ncnc3cc(Cl)ccc23)nc1` as the compound, how does the “GFP activation” value read?
A: inactive: -1.06%

Q: Which Potency does the source give for `COc1ccc2nc3ccccc3nc2c1N` here?
A: inconclusive: 12.6 µM [activator, partial curve]

Q: Which Potency does the source give for `CCOC(=O)c1ccc(N=c2sc(C(=O)OC)cc(=O)n2CCCN2CCOCC2)cc1` here?
A: inconclusive: 31.6 µM [activator, single point]

Q: Which Potency does the source give for `CCOC(=O)c1cccc(NC(=O)C2Cc3ccccc3N2C(=O)c2ccccc2)c1` (centres undefined) here?
A: inconclusive: 35.5 µM [activator, single point]

Q: Which Potency does the source give for `CCSc1ccccc1C(=O)Nc1ccc(-c2nc3ccccc3s2)c(O)c1` here?
A: inconclusive: 35.5 µM [activator, single point]

Q: Which Potency does the source give for `NC(=S)N/N=C/c1ncc(C(F)(F)F)cc1Cl` here?
A: active: 3.98 µM

Q: With `O=C(Nc1sc2c(c1C(=O)NCc1cccnc1)CCCC2)c1cc(=O)c2ccccc2o1` as the compound, how does the Potency read?
A: inconclusive: 14.1 µM [activator, single point]

Q: Which “GFP activation” value does the source give for `O=C(C(Sc1ccccc1)c1ccccc1)N1CCN(c2ccccc2F)CC1` (centres undefined) here?
A: inactive: -2.17%

Q: For `COc1cccc(-n2c(SCC(=O)Nc3c(C)cc(C)cc3C)nc3c([nH]c4ccccc43)c2=O)c1`, which Potency is on record?
A: inconclusive: 31.6 µM [activator, single point]

Q: With `CN(C)c1ccc(/C=N/NC(=O)C(=O)/C=C2\NC3(CCCC3)Cc3ccccc32)cc1` as the compound, how does the Potency read?
A: inconclusive: 25.1 µM [activator, single point]

Q: For `COc1ccc(NC(=O)C(Cc2ccccc2)NS(=O)(=O)c2ccc3c(c2)CCC(=O)N3)c(OC)c1` (centres undefined), which “GFP activation” value is on record?
A: inactive: 1.06%
